According to paper PMC4336329 (PLoS ONE, 2015):
The campaign covered roughly 310,000 compounds. About 14,000 (4.5%) showed an effect of 50% or more. Effects have a minus sign here. Some of the results follow.

Target: human ether-à-go-go-related gene (hERG) potassium channel (human, UniProt Q12809)
Assay: primary screen, population patch clamp on CHO cells stably expressing hERG
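Note: peak tail current of the secondary pulse compared with the same well before compound.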

Chain of human ether-à-go-go-related gene (hERG) potassium channel (Q12809 whole entry, looked up): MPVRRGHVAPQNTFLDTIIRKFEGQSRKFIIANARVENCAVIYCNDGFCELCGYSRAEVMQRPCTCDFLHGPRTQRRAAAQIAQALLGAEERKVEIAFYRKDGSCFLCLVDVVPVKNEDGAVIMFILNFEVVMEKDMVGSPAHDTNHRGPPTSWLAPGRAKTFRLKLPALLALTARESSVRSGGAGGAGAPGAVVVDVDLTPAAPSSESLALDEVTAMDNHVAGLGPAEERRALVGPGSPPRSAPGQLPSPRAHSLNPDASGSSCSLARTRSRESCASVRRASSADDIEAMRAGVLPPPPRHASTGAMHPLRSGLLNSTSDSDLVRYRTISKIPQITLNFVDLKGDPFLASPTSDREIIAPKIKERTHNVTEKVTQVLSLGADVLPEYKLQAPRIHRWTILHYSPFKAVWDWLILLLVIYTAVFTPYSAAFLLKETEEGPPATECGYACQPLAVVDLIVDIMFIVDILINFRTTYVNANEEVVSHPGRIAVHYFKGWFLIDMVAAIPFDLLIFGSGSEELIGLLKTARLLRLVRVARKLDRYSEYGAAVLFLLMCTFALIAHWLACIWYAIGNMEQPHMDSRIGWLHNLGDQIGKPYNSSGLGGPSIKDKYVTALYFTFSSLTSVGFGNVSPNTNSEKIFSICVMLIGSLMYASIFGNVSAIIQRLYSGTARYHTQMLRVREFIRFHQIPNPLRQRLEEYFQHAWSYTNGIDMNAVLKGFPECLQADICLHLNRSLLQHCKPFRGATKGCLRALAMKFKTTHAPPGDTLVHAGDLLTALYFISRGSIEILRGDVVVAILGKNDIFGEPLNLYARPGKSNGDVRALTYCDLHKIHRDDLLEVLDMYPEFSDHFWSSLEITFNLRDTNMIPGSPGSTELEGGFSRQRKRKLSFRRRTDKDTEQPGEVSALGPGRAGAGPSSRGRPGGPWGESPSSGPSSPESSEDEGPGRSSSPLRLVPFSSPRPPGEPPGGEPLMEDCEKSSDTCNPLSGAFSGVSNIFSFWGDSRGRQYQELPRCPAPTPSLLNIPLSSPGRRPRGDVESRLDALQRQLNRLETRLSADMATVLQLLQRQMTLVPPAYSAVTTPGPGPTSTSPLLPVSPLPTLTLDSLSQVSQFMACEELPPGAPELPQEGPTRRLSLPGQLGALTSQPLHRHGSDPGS

| Compound | hERG current change (%, negative = inhibition) at 10uM [%] |
| --- | --- |
| CC(C)C1Cc2c(sc(NC(=S)NC(=O)c3ccccc3)c2C#N)CO1 (centres unmarked) | 3.07 |
| O=C(CSc1ccc2nnc(-c3ccccn3)n2n1)Nc1ccccc1 | -23.4 |
| O=c1n(Cc2ccc(F)cc2)nc2n1-c1ccccc1SC2 | 1.87 |
| COc1cc(N2C(=O)CSC2=S)cc(OC)c1OC | 4.66 |
| CC(=O)Nc1ccc(NC(=O)CSc2nc3ccccc3nc2N2CCCCC2)cc1 | 7.89 |
| O=C(CN1CCC(Cc2ccccc2)CC1)NC(=O)NC1CCCCC1 | -39.6 |
| CC(C)(C)C(=O)C[n+]1ccccc1.[Br-] | 11.8 |
| COc1ccccc1N1CCN(/N=C/c2cc(OC)c(O)c(OC)c2)CC1 | -28.7 |
| CCOC(=O)COc1ccc2c(C)cc(=O)oc2c1C(=O)c1ccccc1 | -20.7 |
| COc1cc2ccccc2cc1C(=O)Nc1ccccc1C | 17.1 |
| Cc1cccc(C(=O)Nc2ccccc2C(=O)OCC(=O)Nc2ccc(C#N)cc2)c1 | -8.69 |
| COc1cccc(Sc2ccccc2CN(C)C)c1.Cl | -13 |
| O=C(c1ccco1)N1CCN(Cc2nc(Cc3ccccc3)no2)CC1 | -8.87 |
| COc1ccc(/C=N/NC(=O)c2nnn(-c3nonc3N)c2-c2cccs2)c(OC)c1 | 13.1 |
| COc1cccc2c1OC1(C)CC2NC(=O)N1c1cccc(C(=O)N2CCN(c3ccccc3)CC2)c1 (centres unmarked) | 9.75 |
| COc1ccc(CC(C)N2CCN(Cc3ccccc3)CC2)cc1OC (centres unmarked) | -33.1 |
| COc1ccc(CNC(=O)N2CCN(c3ccccc3OC)CC2)cc1 | 0.951 |
| CC1=NNC(=O)C1CC(=O)N/N=C(\C)c1cccs1 (centres unmarked) | 17.4 |
| CCCn1c(N)c(Sc2ccccc2)c(=O)n(CCC)c1=O | -7.71 |

| Compound | hERG current change (%, negative = inhibition) at 10uM [%] |
| --- | --- |
| CC(C)Nc1nnc(SCc2cc(=O)n3ccsc3n2)s1 | 6.88 |
| COC(=O)CCC(=O)N1CCCC(CO)(Cc2ccccc2C)C1 (centres unmarked) | 16.9 |
| O=C(COc1ccccc1O)NCCN1CCOCC1 | 25.3 |
| Cc1c(C#N)c(O)n(CCO)c(=O)c1N=Nc1ccc2c(c1)COC2=O | 0.9 |
| COc1ccc(OCCC(=O)OCC(=O)Nc2ccc(S(=O)(=O)N3CCOCC3)cc2)cc1 | 72.7 |
| Cc1cs/c(=N\N=C2CCCCC2)n1Cc1ccco1 | 33.7 |
| O=C(/C=C/c1c(F)cccc1Cl)Nc1ccc(S(=O)(=O)Nc2ncccn2)cc1 | 14.8 |
| Cc1ccc(-n2c(O)c(/C=N/Nc3ccc(S(=O)(=O)N4CCOCC4)cc3[N+](=O)[O-])c3ccccc3c2=O)c(C)c1 | 5.7 |
| COc1ccc(CCNC(=O)c2ccc(CSc3ccccc3)o2)cc1 | -7.13 |
| Cc1nc2c(C(=O)NCc3ccco3)cnn2c(C)c1Cc1ccc(F)cc1Cl | -5.06 |
| CCOC(=O)C(C)NC(=O)CCc1nnc2ccc(N3CCC(C)CC3)nn12 (centres unmarked) | 12.3 |
| O=C(O)c1cccc(-n2cccc2/C=C\[N+](=O)[O-])c1 | 33.7 |
| c1ccn2c(SCc3ccc4c(c3)OCO4)nnc2c1 | 11.9 |
| CCn1c(C)[n+](CC)c2ccc(S(=O)(=O)N(C)C)cc21.[I-] | 26.9 |
| COc1cc(/C=C/C(C)=O)cc(OC)c1OC | 2.53 |
| O=C1c2ccccc2NC(c2ccccc2)N1NS(=O)(=O)c1ccccc1 (centres unmarked) | 5.62 |
| O=C(NCc1cccc(Cl)c1)c1ccncc1 | 2.66 |
| Cc1ccc2[nH]c3c(c2c1)CN(C(=O)CN1CCN(C(=O)c2ccco2)CC1)CC3 | -5.97 |
| COc1cccc2c(=O)c(SC(F)(F)C(F)C(F)(F)F)c(C)[nH]c12 (centres unmarked) | -18.1 |

| Compound | hERG current change (%, negative = inhibition) at 10uM [%] |
| --- | --- |
| COc1ccccc1NC(=O)C(C)OC(=O)/C=C/c1ccc2ccccc2n1 (centres unmarked) | -7.77 |
| O=C1NC(=O)N(c2ccc(Br)cc2)C(=O)/C1=C/c1ccsc1 | 15.5 |
| Cc1ccc2oc(-c3ccccc3)nc2c1 | 11.3 |
| CCN(Cc1ccccc1)S(=O)(=O)c1ccc(S(=O)(=O)N(Cc2ccccn2)Cc2ccco2)cc1 | 18.6 |
| COc1ccc(NC(=O)C2CC(=O)N/C(=N/N=C/c3ccccc3)S2)cc1 (centres unmarked) | 10.4 |
| CS(=O)(=O)N1CCCC(C(=O)NCc2ccccc2Cl)C1 (centres unmarked) | 3.96 |
| O=C(Nc1ccc(OC(F)F)cc1)c1ncc(Cl)c(Cl)c1Cl | 1.63 |
| Cc1cccc(C)c1-n1cccc1/C=C1/C(=N)N2C(=NC1=O)SN=C2S(C)(=O)=O | -1.11 |
| COc1ccc2nc(/C=N/NC(=O)[C@H](C)NC(=O)OC(C)(C)C)ccc2c1 | -7.25 |
| O=C(NCCCCc1ccccc1)Nc1cccc(F)c1 | -8.25 |
| COc1ccc(C(=O)/C=C2/c3ccccc3CC(C)(C)N2C)cc1OC.Cl | -11 |
| Cc1ccc(N2C(=O)N(CC(=O)Nc3ccc(F)c(F)c3)C(=O)C2C)cc1 (centres unmarked) | 10.4 |
| COc1ccc(C(CC(=O)N2CCC3(CC2)OCCO3)NS(=O)(=O)c2ccc(F)cc2)cc1 (centres unmarked) | -2.22 |
| Brc1ccc(/C=N/Nc2ncnc3c2cnn3Cc2ccccc2)cc1 | 14.9 |
| N#CC1(NC(=O)COC(=O)CNC(=O)c2sc3ccccc3c2Cl)CCCCC1 | -29.2 |
| COc1ccc(NC(=O)CCN2C(=O)c3ccccc3S2(=O)=O)c(OC)c1 | 1.28 |
| NNc1ccc(S(=O)(=O)N2CCCCC2)cn1 | 15.5 |
| COc1ccc2c(c1)nc(NCCCO)n2Cc1ccccc1 | -13.9 |
